Experimental data taken from the BET-seq Pho4 binding data (Le et al. 2018).
Some of the results follow. These are noisy estimates, calculated here from bound and input reads.

molecular target: T1, Pho4 (S. cerevisiae) (UniProt P07270); assay: relative binding free energy (BET-seq); higher = weaker binding; details: reference: library average
T1 sequence: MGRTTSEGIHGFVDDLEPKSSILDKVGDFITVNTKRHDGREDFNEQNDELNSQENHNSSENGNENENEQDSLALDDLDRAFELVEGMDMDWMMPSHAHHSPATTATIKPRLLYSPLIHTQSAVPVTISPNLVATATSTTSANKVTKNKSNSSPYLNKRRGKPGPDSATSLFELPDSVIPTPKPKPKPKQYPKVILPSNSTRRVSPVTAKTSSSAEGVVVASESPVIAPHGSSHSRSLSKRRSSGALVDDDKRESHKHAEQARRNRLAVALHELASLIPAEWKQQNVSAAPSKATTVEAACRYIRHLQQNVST

Sequence	relative binding free energy [kcal/mol]
ATGTACACGTGTTGTG	-0.06
TTCAGCACGTGGTTCT	0.05
TTGTTCACGTGTGTAA	0.31
AATCGCACGTGGGAGT	-0.02
TTCGGCACGTGTGTGG	0.01
TTGGGCACGTGTTCTC	-0.05
GGGGGCACGTGTGAGT	0.07
GGTAGCACGTGATTAT	0.04
GTGTTCACGTGGTGAG	0.32
TGGCTCACGTGATGTG	0.36
AGTGACACGTGTAAGG	-0.01
CTTTGCACGTGGATGT	-0.02
TGGAACACGTGGTATT	0.07
GGATGCACGTGATTGC	0.13
TAGCGCACGTGCGGGT	-0.15
GGTTTCACGTGGGCAC	0.3
TTATCCACGTGTTATA	0.04
AGATTCACGTGATTTA	0.28
TATGGCACGTGTCCTT	0.08
GTTAGCACGTGCTATT	-0.06
TGTCTCACGTGGTAAG	0.18
ATGGTCACGTGTCAGG	0.14
GGTGGCACGTGCAGTG	-0.09

Sequence	relative binding free energy [kcal/mol]
TGAGACACGTGCTGGT	-0.09
GGAAGCACGTGGGGTT	-0.11
TAAAGCACGTGATAGT	-0.1
ACGGGCACGTGTCAGG	-0.05
TATGTCACGTGTTTCT	0.07
AGAATCACGTGGGGGG	-0.03
GGGTACACGTGATGAA	0.24
CAGGGCACGTGTGCGA	-0.09
GTATGCACGTGTTCTA	0.02
GGGCTCACGTGGTAAA	0.2
TTTTGCACGTGGAGTT	0.1
TCGGACACGTGGACGG	0.24
TGCGTCACGTGGAGCT	-0.03
ATTAGCACGTGTAAGG	0.09
TTACGCACGTGGAAGG	-0.05
AATTACACGTGTTGCT	0.19
GATCGCACGTGGATGT	0.12
GCGAGCACGTGAGGTT	0.36
TCTTTCACGTGTTTAG	0.35
ATACGCACGTGTGTTG	-0.18
GTGTACACGTGGGTTT	-0.04
TTATTCACGTGGGACA	0.06
CGCATCACGTGTGTGG	0.11

Sequence	relative binding free energy [kcal/mol]
AACGGCACGTGGGGGT	-0.24
GTTGTCACGTGACGGG	0.22
TATTGCACGTGATGAG	0.07
TAATTCACGTGTAGTC	0.35
GTCTTCACGTGTATAG	0.31
TTTGGCACGTGCAGAG	-0.16
GAATGCACGTGTTTTA	0.1
CTTTACACGTGGGTTT	0
ATGTTCACGTGGGAGG	0.17
ATTTTCACGTGCTGGC	0.24
GGGTTCACGTGCGTAA	0.3
TAATCCACGTGGGGAT	0
GATAGCACGTGATAGG	0.08
TCTGGCACGTGATGCG	0.04
AGGTGCACGTGGGTGT	-0.12
AGTTACACGTGAAGTA	0.29
GAGGTCACGTGGATGG	0.25
TCGGTCACGTGTTGGT	0.23
TGTATCACGTGCCTGT	-0.01
GTGCTCACGTGATTTT	0.38
GATGGCACGTGTCAGG	0.02
GATAGCACGTGGTGAA	0.16
TTGTACACGTGCCTGG	0.05

Sequence	relative binding free energy [kcal/mol]
GGGGGCACGTGCCGCG	-0.32
TAGGTCACGTGTTAGC	0.22
TAGGACACGTGTGAGG	0.2
TGGGTCACGTGAAAGG	0.34
GTGATCACGTGGGAGG	0.02
CAGAACACGTGTTGTG	-0.12
TAGGCCACGTGGGTAT	-0.33
TAAATCACGTGGATTG	0.05
GAGGTCACGTGATTAG	0.37
GATTCCACGTGGGGCG	0.14
TGAGGCACGTGTTCGT	-0.06
ATCAGCACGTGCGTGT	-0.09
GGGATCACGTGTGCGT	0.24
TATAACACGTGAGTAG	0.13
AGATGCACGTGTGGAC	0
CAGTACACGTGGATGT	0.07
GCAGGCACGTGTGGAA	0
AGAGACACGTGTGGGG	0.07
AGGTCCACGTGGGGAG	-0.05
TATATCACGTGCGTGC	0.1
GTTAACACGTGGTGGC	0.11
ATTGTCACGTGTGTTC	0.13
ATTGTCACGTGATAAA	0.22

Sequence	relative binding free energy [kcal/mol]
AAGCTCACGTGTTTGA	0.31
GTAACCACGTGGGTAT	-0.01
TATAGCACGTGTTAAT	-0.01
GTGGGCACGTGGTCAG	-0.15
CGCGTCACGTGGGTTG	-0.09
GGATCCACGTGGAGTG	-0.01
GTAGCCACGTGTGCGG	-0.07
CATAACACGTGAGGGG	0.19
CAATGCACGTGTGGGG	0.01
ATATGCACGTGCTGTG	-0.01
TGAAGCACGTGAGGAA	0.36
CAATGCACGTGGGCGG	-0.14
GATAACACGTGGGGCT	0.01
TCATGCACGTGTGTAC	0.21
TGGTACACGTGTGGTT	0.2
CGGGGCACGTGAACGT	0.06
TAAGTCACGTGAGTCG	0.32
CTTTGCACGTGTAGGA	0.03
GAATGCACGTGAAGGT	0.15
ATGGGCACGTGTTTTG	-0.01
AATGACACGTGGTAGG	-0.15
CATGGCACGTGTAATT	0.08
TATAACACGTGGTGGT	-0.1
